These results are taken from the RNAGym collection of RNA variant scans (doi:10.1073/pnas.2313332121).

B1: TPR 5TU (parent)
chain: GGAUCUUCUCGAUCUAACAAAAAAGACAAAUCUGCCACAAAGCUUGAGAGCAUCUUCGGAUGCAGAGGCGGCAGCCUUCGGUGGCGCGAUAGCGCCAACGUUCUCAACUAUGACACGCAAAACGCGUGCUCCGUUGAAUGGAGUUUAUCAUG

Variants at the background level are over-represented here.

In the data set the parent is B1. The experiment in a line: polymerase ribozyme fitness, log enrichment relative to wild type (log ratio); higher = more active; in vitro selection for triplet polymerase activity. In a few lines: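 After PCR construction and transcription, each subunit's mutant library from a heterodimeric triplet polymerase ribozyme was annealed with a biotinylated primer, the partner subunit and triplets. Incubation was frozen, at −7 °C, and extended constructs were gel-excised, bound to streptavidin beads and amplified by RT-PCR, in one selection round done in triplicate. Fitness is the logarithm of a genotype's enrichment divided by that of the wild type, from inverse-variance-weighted replicate averages of Illumina-sequenced inputs and outputs. The base of the logarithm is 2, and genotypes needed ≥10 input reads and ≥1 read per output.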
Consider G86A C108G, for which the “polymerase ribozyme fitness (log ratio)” value was ≤ -4.2.
For C93G G140C the value was ≤ -4.2; for A89U A150G, -0.42; for G88C C96G, ≤ -4.2.
C87U U90G: the “polymerase ribozyme fitness (log ratio)” value is ≤ -4.2.
As to C87A G141A, the “polymerase ribozyme fitness (log ratio)” value is -3.89.
Next, C87U G143U: -2.69.
As for A91C G92A G94A G141C, the “polymerase ribozyme fitness (log ratio)” value is ≤ -4.2.
For C87U G141U the value was 0.462; for C85G U144G, -1.75.
Next, G86C G100A G136U U144A: ≤ -4.2; A91U A98G: ≤ -4.2.
Next, A91C A120G G126A: ≤ -4.2.
As to G86U U90G C103A A119C A121C A138C, the “polymerase ribozyme fitness (log ratio)” value was ≤ -4.2.
Next, C85U G136U: -1.83; U90C G94C: ≤ -4.2.
Next, A91G A107C U144A: ≤ -4.2; A89C C103A: -2.11.
Next, A91U C95A C108U: ≤ -4.2; G92A C116A G143C A150G: ≤ -4.2.
In the case of C87A C105U A107U, the “polymerase ribozyme fitness (log ratio)” value is ≤ -4.2.
Turning to A89C C93G C96U U148G, the “polymerase ribozyme fitness (log ratio)” value was ≤ -4.2.
On to G88U A121U, for which the “polymerase ribozyme fitness (log ratio)” value is ≤ -4.2.
G86U A110U: the “polymerase ribozyme fitness (log ratio)” value was ≤ -4.2.
Next, U90G C93A: ≤ -4.2.
For G88C C99A A119U the value was ≤ -4.2.
For G88U G128A the value was ≤ -4.2; for C93U C131A, -2.97.
On to C85G C95A A107G U109A A137U A138G, for which the “polymerase ribozyme fitness (log ratio)” value is ≤ -4.2.
In the case of A91U G94A G128U, the “polymerase ribozyme fitness (log ratio)” value is ≤ -4.2.
Next, A91U G141A U144G: ≤ -4.2.
Next, C85G G92C A106C A120U A121G U134A: ≤ -4.2.
Turning to G88C A91U A115U U148G, the “polymerase ribozyme fitness (log ratio)” value was ≤ -4.2.
For C85A U104G A113C A120U, the “polymerase ribozyme fitness (log ratio)” value was ≤ -4.2.
As for A91G A107U A147U U148C, the “polymerase ribozyme fitness (log ratio)” value was ≤ -4.2.
Next, U90G C99A C116U U134A A137U: ≤ -4.2; C87A A110G: ≤ -4.2; C93A G117U: -1.92.
For C87A G133U U145C the value was ≤ -4.2; for G92C G140C, ≤ -4.2; for A91G C125A A150U, ≤ -4.2.
For A91U U139C G152U the value was ≤ -4.2; for A91C U135G, ≤ -4.2; for C85U A89U A110C A121U G136A U146C, ≤ -4.2.
As for C85U G92U C125A G136C, the “polymerase ribozyme fitness (log ratio)” value was -3.55.
G92U G141C C149G: the “polymerase ribozyme fitness (log ratio)” value is ≤ -4.2.
Take C87G U111A C118U: the “polymerase ribozyme fitness (log ratio)” value is ≤ -4.2.
For A89G U111C the value was ≤ -4.2; for C93U G117A A142C, -4.07; for G88A A91G, ≤ -4.2.
For the variant A91U G133A U148C, the “polymerase ribozyme fitness (log ratio)” value is ≤ -4.2.
Next, U90C A147U: -3.58; G88A C103G: ≤ -4.2; C87A A91G G152U: -4.13.
Turning to C85G G133A, the “polymerase ribozyme fitness (log ratio)” value was ≤ -4.2.
As to C85G G133U, the “polymerase ribozyme fitness (log ratio)” value was ≤ -4.2.
For A89G U90A A91G C99G G100U C116A U145C U148G the value was ≤ -4.2.
On to G88A U101A, for which the “polymerase ribozyme fitness (log ratio)” value is ≤ -4.2.
Next, C85G G128C: ≤ -4.2; C87U A110G G112U: ≤ -4.2; C87U G94C: -2.05.
Next, A89U C95G C103G G133C U135G: ≤ -4.2; G92U C116U: 0.0946.
For G88C U145C the value was ≤ -4.2; for A91C U139G, ≤ -4.2; for G92A C108G U139G A142G C149A, ≤ -4.2.
For C93A C96G A97C U148A, the “polymerase ribozyme fitness (log ratio)” value is ≤ -4.2.
For the variant G92C G94A A142U G143U A147G, the “polymerase ribozyme fitness (log ratio)” value is ≤ -4.2.
On to A89U C93G A147U, for which the “polymerase ribozyme fitness (log ratio)” value was -2.7.
As to G86A A91C C118U, the “polymerase ribozyme fitness (log ratio)” value was ≤ -4.2.
As for C85G G100A U146C, the “polymerase ribozyme fitness (log ratio)” value was ≤ -4.2.
For the variant G86A C149A, the “polymerase ribozyme fitness (log ratio)” value was ≤ -4.2.
For G92C C103A the value was -3.4; for C87G U111C A120U, ≤ -4.2; for C93A C105U, -2.67.
For G92A C116G C123G the value was -2.92; for C93A A138G G143C, -3.66.
Take G86C U90G G140C: the “polymerase ribozyme fitness (log ratio)” value was ≤ -4.2.
Next, G92U G141A: -1.81; C93A A121C U148C: -2.37.
Regarding U90A A113U, the “polymerase ribozyme fitness (log ratio)” value is ≤ -4.2.
Next, C85G A107G U127C: ≤ -4.2; A89C C93G U102G C103A U145G: ≤ -4.2.
